In the supplement of paper PMC11417369:
± gives the standard deviation of the averaged measurements. The list shows a part of the results.

System: PfAP2-I AP2 domain 3 (GST-tagged)
Test: gcPBM binding intensity (ln(normalized median fluorescence intensity)); higher = stronger DNA binding
Method in brief: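 Alexa488 anti-GST antibody, scanned at 488 nm, detected GST-tagged P. falciparum DNA-binding domains that had been expressed in E. coli and incubated for 1 h on an Agilent 4 × 180k array. The array carried primer-extended double-stranded 36-bp intergenic genomic probes and negative controls. Binding intensity is the highest Masliner-normalised natural-log median intensity across replicate spots of either orientation of each probe.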

Q: Which “gcPBM binding intensity (ln)” value does the source give for “GCACAACATATATTATCACACACATATATATATATA [CACACA_site8619]” here?
A: 9.54 ± 0.29

Q: For “TATAATGAACATATGTGTACATATATTTTTTAAATT [XGTACX_site8736]”, which “gcPBM binding intensity (ln)” value is on record?
A: 7.56 ± 0.38

Q: With “AAAAAACAAAAAAAAAAAAAAATAATACAATATAAT [CACACA_negctrl_site1630]” as the sequence, how does the “gcPBM binding intensity (ln)” value read?
A: 7.32 ± 0.42

Q: For “ACCATATAAATAAACACACACACACCGATATATATA [CACACA_site5310]”, which “gcPBM binding intensity (ln)” value is on record?
A: 8.18 ± 0.71

Q: For “CAAAAGAATATATGTAGTACATGTTGTAGATAATAT [XGTACX_site1044]”, which “gcPBM binding intensity (ln)” value is on record?
A: 8.26 ± 0.49

Q: For “CGCGAAGTAGCATTCACACACAGCAAAATATAAATA [CACACA_site7608]”, which “gcPBM binding intensity (ln)” value is on record?
A: 7.68 ± 0.62

Q: “TCAGATATATAGAATACACACATGGATATAAGAAAT [CACACA_site7831]” was tested. Which “gcPBM binding intensity (ln)” value did it give?
A: 7.97 ± 0.64

Q: How did the “gcPBM binding intensity (ln)” value turn out when “ATATTTTGTAACTATACACACATATATATATTATAA [CACACA_site3062]” was run?
A: 7.88 ± 0.56

Q: With “TTTTTGTAATATTATGATGTCATATATATATATATA [XGTACX_negctrl_site618]” as the sequence, how does the “gcPBM binding intensity (ln)” value read?
A: 9.08 ± 0.83

Q: With “AAATTGGGTACAAATACACACACATATATATATTAA [CACACA_site8745]” as the sequence, how does the “gcPBM binding intensity (ln)” value read?
A: 7.92 ± 0.27

Q: For “TTTATACAATAAAATGCATGCAAGTATCTATTTTAT [TGCATGCA_site210]”, which “gcPBM binding intensity (ln)” value is on record?
A: 7.75 ± 0.69

Q: With ATAGATCCTAATGTTGTGCACATGTAAATTAATATA as the sequence, how does the “gcPBM binding intensity (ln)” value read?
A: 10.1 ± 0.25

Q: For “TTTTTTTTTTTTTTTTGTACGAATAAACAAGTTATT [XGTACX_site5473]”, which “gcPBM binding intensity (ln)” value is on record?
A: 7.79 ± 0.37

Q: With TGTATTAAAAATTTGGTGCAACTTTTACATAATAAT as the sequence, how does the “gcPBM binding intensity (ln)” value read?
A: 9.49 ± 0.18

Q: With “ATATATATATATATATGTACATATTTTATTTAATTT [XGTACX_site1807]” as the sequence, how does the “gcPBM binding intensity (ln)” value read?
A: 9.48 ± 0.47

Q: “AAAAAAAAAAATAAATGTACAAAATAATGGGGAACA [XGTACX_site8723]” was tested. Which “gcPBM binding intensity (ln)” value did it give?
A: 8.01 ± 0.78

Q: “GTGAATGATTTAAGTACACACCGGTATTTATTCAAA [CACACA_site4950]” was tested. Which “gcPBM binding intensity (ln)” value did it give?
A: 8.03 ± 0.22

Q: “AAAAAAAAAAAATACACACACACATATTTATTTATA [CACACA_site6483]” was tested. Which “gcPBM binding intensity (ln)” value did it give?
A: 7.6 ± 0.38

Q: For “ATATATTTAAAAAAATGTACAAATCATAAATGCAAG [XGTACX_site4230]”, which “gcPBM binding intensity (ln)” value is on record?
A: 7.87 ± 0.47

Q: How did the “gcPBM binding intensity (ln)” value turn out when “AGAAATTAAATGTAAGCACACATAAATTATACACAT [CACACA_site9098]” was run?
A: 8.12 ± 0.55

Q: For “AAAAAATTATACCAGTGTACTTTTTTGGTTTTTCTT [XGTACX_site2601]”, which “gcPBM binding intensity (ln)” value is on record?
A: 7.86 ± 0.25

Q: For “TATAATGTTGATGATAGTACGTATGAGTTCAAAAAA [XGTACX_site3651]”, which “gcPBM binding intensity (ln)” value is on record?
A: 7.99 ± 0.54

Q: How did the “gcPBM binding intensity (ln)” value turn out when “AAAAGAATTAATTTATGTACTAATTTCAAGAAATAA [XGTACX_site3241]” was run?
A: 7.46 ± 0.33

Q: How did the “gcPBM binding intensity (ln)” value turn out when “CTCGATCAAGTGTATGCATGTACCAGTGAACAAAAA [TGCATGCA_site635]” was run?
A: 8.1 ± 0.62

Q: For “TCCTTACACACACTTTTTTTTTTTTTTTTTTCTACA [GTGCAC_negctrl_site263]”, which “gcPBM binding intensity (ln)” value is on record?
A: 7.96 ± 0.59

Q: “ATATATTATCAACTTACACACAGAAAACTATAATAA [CACACA_site6275]” was tested. Which “gcPBM binding intensity (ln)” value did it give?
A: 7.75 ± 0.59

Q: “CTTTTTCCTTTATAAAGTACTTAAAATATTTAGATA [XGTACX_site4259]” was tested. Which “gcPBM binding intensity (ln)” value did it give?
A: 7.93 ± 0.41

Q: How did the “gcPBM binding intensity (ln)” value turn out when “TATATATTTATTTATTGTACACTCTTTAAGAATACA [XGTACX_site2569]” was run?
A: 7.91 ± 0.26

Q: Which “gcPBM binding intensity (ln)” value does the source give for “TATATATATATATATATATATATATATGTGTATGTA [TGCATGCA_negctrl_site255]” here?
A: 9.61 ± 0.49

Q: “GATTCGATCTATATATGTACACATAAATATTTTTTG [XGTACX_site7015]” was tested. Which “gcPBM binding intensity (ln)” value did it give?
A: 7.89 ± 0.53

Q: ATACACAAGAATATGTTGCACTTTTATATTCGTATG was tested. Which “gcPBM binding intensity (ln)” value did it give?
A: 9.36 ± 0.13

Q: With “AATAAAATTGACCATTCACACAAGAAAAATTAATCA [CACACA_site5636]” as the sequence, how does the “gcPBM binding intensity (ln)” value read?
A: 7.43 ± 0.5

Q: For “CATAAGATTTTTACATGTACATATTTATAATATATT [XGTACX_site6578]”, which “gcPBM binding intensity (ln)” value is on record?
A: 7.91 ± 0.29

Q: How did the “gcPBM binding intensity (ln)” value turn out when “GATATATAAATTGACACACACATATATACCTATATA [CACACA_site6689]” was run?
A: 7.8 ± 0.59

Q: Which “gcPBM binding intensity (ln)” value does the source give for “TTCTTTTTTTTTTTTTCATGTATATTAAACTTTTCA [TGCATGCA_negctrl_site592]” here?
A: 7.61 ± 0.42

Q: How did the “gcPBM binding intensity (ln)” value turn out when “AATATTTATATTAACTGTACAGAAAATATCTTTGCT [XGTACX_site8130]” was run?
A: 7.84 ± 0.3

Q: For “TATGCCATGGCATAATGTACATAAGTGACCTCATAA [XGTACX_site1294]”, which “gcPBM binding intensity (ln)” value is on record?
A: 7.79 ± 0.6

Q: “AATATAAAAATGTTTACACACACACCGAAATATATT [CACACA_site8800]” was tested. Which “gcPBM binding intensity (ln)” value did it give?
A: 7.97 ± 0.68

Q: For “AATTAGCTATTTAAAAATATATAAAATTTATATATA [CACACA_negctrl_site390]”, which “gcPBM binding intensity (ln)” value is on record?
A: 7.47 ± 0.2

Q: Which “gcPBM binding intensity (ln)” value does the source give for “ATCATATTGAATATTTAACACACATTTCGCTTAATT [CACACA_site8652]” here?
A: 7.68 ± 0.8

Q: For “GAAATAGAGAGACACACACACATATATTTATGTATT [CACACA_site7794]”, which “gcPBM binding intensity (ln)” value is on record?
A: 7.46 ± 0.5

Q: AAAATGTAGAAATGGGTGCACACACATATATAATAT was tested. Which “gcPBM binding intensity (ln)” value did it give?
A: 10.28 ± 0.064

Q: With “TATATATATAAAAGTTGTACAGTGTTTTATATAGTT [XGTACX_site7085]” as the sequence, how does the “gcPBM binding intensity (ln)” value read?
A: 8.71 ± 0.26

Q: “TTATGTAAAATCGATACATGCATTAATCATTTTATA [TGCATGCA_site493]” was tested. Which “gcPBM binding intensity (ln)” value did it give?
A: 7.91 ± 0.84

Q: With “TCATATTTCCATAGGAGTACATAAAAAAAATAATAT [XGTACX_site7601]” as the sequence, how does the “gcPBM binding intensity (ln)” value read?
A: 8.2 ± 0.23

Q: For “TATGATATGTTATACACACACGTATTTATGAATTGA [CACACA_site7591]”, which “gcPBM binding intensity (ln)” value is on record?
A: 7.79 ± 0.53

Q: With “ATTTATATTAATGGATAAATAAATGTGTACTTGATA [CACACA_negctrl_site24]” as the sequence, how does the “gcPBM binding intensity (ln)” value read?
A: 8.14 ± 0.099

Q: “TTCTTTATTATATGCACACGTACATATAATATATAT [CACACA_site2018]” was tested. Which “gcPBM binding intensity (ln)” value did it give?
A: 9.55 ± 0.26

Q: For “AAAAAAAAAAAACACACACACATATATATATATATA [CACACA_site732]”, which “gcPBM binding intensity (ln)” value is on record?
A: 9.445 ± 0.049

Q: Which “gcPBM binding intensity (ln)” value does the source give for “ATCAACAAAACATACACACACATATAGATTTATATA [CACACA_site7415]” here?
A: 7.81 ± 0.41

Q: For “AAGAAAAAAAAAAAAAATATATATATAAGAACATAT [TGCATGCA_negctrl_site131]”, which “gcPBM binding intensity (ln)” value is on record?
A: 7.45 ± 0.67

Q: With “GATAAAACGTTATGCACACGTACGTGGGTATTTATA [CACACA_site4954]” as the sequence, how does the “gcPBM binding intensity (ln)” value read?
A: 10 ± 0.3

Q: How did the “gcPBM binding intensity (ln)” value turn out when “AACTATAAAAAAAATACACACATTACCAAAAATATA [CACACA_site1529]” was run?
A: 7.63 ± 0.59

Q: For “AATCTGATTTGTATATGTACACAAATATTTTTATTT [XGTACX_site5295]”, which “gcPBM binding intensity (ln)” value is on record?
A: 7.73 ± 0.64

Q: With “TATAAAAAAATATATATATATATATATATATAAATA [TGCATGCA_negctrl_site22]” as the sequence, how does the “gcPBM binding intensity (ln)” value read?
A: 8.02 ± 0.16

Q: Which “gcPBM binding intensity (ln)” value does the source give for “TTTAATAATTATTAAAGTACAAAATAAATATTGAAT [XGTACX_site7538]” here?
A: 7.89 ± 0.56

Q: Which “gcPBM binding intensity (ln)” value does the source give for “TGCTATATAATATGAGCACACATAAGATTTGGTGTT [CACACA_site8148]” here?
A: 8.05 ± 0.6
